{
  "sequences": {"note": "By UniProt entry, the sequences of proteins in these tests, tags left out.", "UniProt Q32KD4": "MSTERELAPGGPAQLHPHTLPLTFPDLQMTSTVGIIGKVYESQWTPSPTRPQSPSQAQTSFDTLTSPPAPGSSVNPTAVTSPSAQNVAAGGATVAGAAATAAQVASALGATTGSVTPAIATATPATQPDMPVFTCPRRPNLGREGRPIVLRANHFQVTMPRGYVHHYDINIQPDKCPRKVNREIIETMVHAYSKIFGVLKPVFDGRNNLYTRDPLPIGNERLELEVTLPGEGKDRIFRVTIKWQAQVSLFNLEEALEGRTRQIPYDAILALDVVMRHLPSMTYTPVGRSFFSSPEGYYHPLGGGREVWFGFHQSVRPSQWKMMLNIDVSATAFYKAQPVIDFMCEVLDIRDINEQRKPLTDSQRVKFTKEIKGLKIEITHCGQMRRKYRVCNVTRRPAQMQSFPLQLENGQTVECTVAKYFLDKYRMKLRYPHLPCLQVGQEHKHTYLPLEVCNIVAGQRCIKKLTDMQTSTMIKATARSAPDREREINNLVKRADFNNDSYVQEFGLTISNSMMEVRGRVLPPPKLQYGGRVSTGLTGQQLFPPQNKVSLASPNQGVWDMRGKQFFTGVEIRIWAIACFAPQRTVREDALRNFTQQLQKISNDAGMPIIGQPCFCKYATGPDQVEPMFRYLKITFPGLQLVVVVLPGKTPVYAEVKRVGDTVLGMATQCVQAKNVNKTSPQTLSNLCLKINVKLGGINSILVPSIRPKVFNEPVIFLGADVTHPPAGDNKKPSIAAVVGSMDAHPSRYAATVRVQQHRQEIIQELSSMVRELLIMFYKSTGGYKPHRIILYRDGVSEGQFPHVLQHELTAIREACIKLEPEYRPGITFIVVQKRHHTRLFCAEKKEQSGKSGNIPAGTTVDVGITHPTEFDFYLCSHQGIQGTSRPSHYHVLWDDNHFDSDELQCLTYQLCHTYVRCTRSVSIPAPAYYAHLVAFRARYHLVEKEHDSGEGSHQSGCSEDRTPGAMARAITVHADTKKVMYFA", "UniProt Q24297": "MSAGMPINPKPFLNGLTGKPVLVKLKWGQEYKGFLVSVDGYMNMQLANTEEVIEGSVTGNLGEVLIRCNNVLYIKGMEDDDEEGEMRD", "UniProt Q05856": "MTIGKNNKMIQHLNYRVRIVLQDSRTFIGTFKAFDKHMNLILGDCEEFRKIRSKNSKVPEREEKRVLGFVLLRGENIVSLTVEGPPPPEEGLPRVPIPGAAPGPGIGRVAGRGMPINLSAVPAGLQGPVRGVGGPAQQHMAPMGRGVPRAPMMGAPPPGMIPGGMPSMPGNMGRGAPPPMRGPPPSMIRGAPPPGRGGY", "UniProt Q9VU02": "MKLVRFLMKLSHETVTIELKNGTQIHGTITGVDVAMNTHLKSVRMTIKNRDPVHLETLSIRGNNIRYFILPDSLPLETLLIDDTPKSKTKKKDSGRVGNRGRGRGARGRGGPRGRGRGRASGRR"},
  "source": "paper PMC4550278",
  "key": {"[1]": {"biological_target": "Flag-tagged Ran (control protein) (UniProt Q9VZ23)", "assay": "co-IP; lysates of S2 cells expressing a Flag-tagged protein, immunoprecipitated with anti-Flag antibody; endogenous partners detected by immunoblotting; immunoprecipitates treated with or without RNase A (Fig 3A, 4D); lysis buffer 20 mM Tris-HCl pH 7.6, 150 mM NaCl, 2 mM EDTA, 10% glycerol, 1% Triton X-100, 1 mM DTT"}, "[2]": {"biological_target": "Flag-tagged AGO1 (Drosophila) (UniProt Q32KD4)", "assay": "co-IP; lysates of S2 cells expressing a Flag-tagged protein, immunoprecipitated with anti-Flag antibody; endogenous partners detected by immunoblotting; immunoprecipitates treated with or without RNase A (Fig 3A, 4D); lysis buffer 20 mM Tris-HCl pH 7.6, 150 mM NaCl, 2 mM EDTA, 10% glycerol, 1% Triton X-100, 1 mM DTT"}, "[3]": {"biological_target": "Flag-tagged SmF (Drosophila) (UniProt Q24297)", "assay": "co-IP; lysates of S2 cells co-expressing a Flag-tagged protein (SmD1, other Sm proteins or Ran) and T7-tagged Pasha (full length or truncated), immunoprecipitated with anti-Flag antibody; immunoblotting with anti-T7, anti-SmD1 and anti-Flag"}, "[4]": {"biological_target": "Flag-tagged SmB (Drosophila) (UniProt Q05856)", "assay": "co-IP; lysates of S2 cells co-expressing a Flag-tagged protein (SmD1, other Sm proteins or Ran) and T7-tagged Pasha (full length or truncated), immunoprecipitated with anti-Flag antibody; immunoblotting with anti-T7, anti-SmD1 and anti-Flag"}, "[5]": {"biological_target": "Flag-tagged SmD1 (Drosophila) (UniProt Q9VU02)", "assay": "co-IP; lysates of S2 cells co-expressing a Flag-tagged protein (SmD1, other Sm proteins or Ran) and T7-tagged Pasha (full length or truncated), immunoprecipitated with anti-Flag antibody; immunoblotting with anti-T7, anti-SmD1 and anti-Flag"}, "[6]": {"biological_target": "Flag-tagged SmD1 (Drosophila) (UniProt Q9VU02)", "assay": "co-IP; lysates of S2 cells expressing a Flag-tagged protein, immunoprecipitated with anti-Flag antibody; endogenous partners detected by immunoblotting; immunoprecipitates treated with or without RNase A (Fig 3A, 4D); lysis buffer 20 mM Tris-HCl pH 7.6, 150 mM NaCl, 2 mM EDTA, 10% glycerol, 1% Triton X-100, 1 mM DTT"}},
  "note": "Results are given in words; binding and its absence hold for the method and conditions named. Binding seen in cells or lysates may run through a third protein. Some binding calls cover weakened binding; strength is not graded here.",
  "data": [
    {"substance": "endogenous SmD1 (from UniProt Q9VU02 1-124)", "values": [
      {"measurement": "binding", "setting": "[1]", "result": "no binding"},
      {"measurement": "binding", "setting": "[2]", "result": "binds"},
      {"measurement": "binding", "setting": "[3]", "result": "binds"},
      {"measurement": "binding", "setting": "[4]", "result": "binds"},
      {"measurement": "binding", "setting": "[5]", "result": "binds"}
    ]},
    {"substance": "endogenous AGO1 (from UniProt Q32KD4 1-984)", "values": [
      {"measurement": "binding", "setting": "[1]", "result": "no binding"},
      {"measurement": "binding", "setting": "[6]", "result": "binds"}
    ]}
  ]
}
